# Laboratory results as given in PubChem BioAssay AID485294 (National Center for Advancing Translational Sciences (NCATS), 2010).
# The campaign covered roughly 370,000 compounds. About 150 (0.041%) were called active. The inconclusive results got no clear call from the source; some entries with a clear call stand among them for comparison. Calls follow the shape of the dose curve; as a rule, active = well fitted inhibition curve with a large enough effect; inconclusive = small, poorly fitted or top-dose-only effect; inactive = flat fitted curve, though single readings scatter. No potency is given beside an inconclusive call; the fits are too rough.
# Biological target: Beta-lactamase (Escherichia coli (strain K12)) (UniProt P00811)
# UniProt P00811, sequence (P00811 whole entry, looked up): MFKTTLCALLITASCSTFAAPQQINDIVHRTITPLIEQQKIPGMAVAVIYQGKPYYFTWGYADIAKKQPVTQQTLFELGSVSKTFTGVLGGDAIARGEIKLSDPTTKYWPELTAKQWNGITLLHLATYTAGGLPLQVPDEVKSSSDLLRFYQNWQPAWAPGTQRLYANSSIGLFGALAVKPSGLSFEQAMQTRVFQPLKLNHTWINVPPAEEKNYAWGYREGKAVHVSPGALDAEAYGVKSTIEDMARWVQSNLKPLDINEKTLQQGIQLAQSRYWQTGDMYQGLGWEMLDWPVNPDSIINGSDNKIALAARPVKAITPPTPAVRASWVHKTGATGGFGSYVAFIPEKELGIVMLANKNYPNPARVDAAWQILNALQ
# Test: qHTS Inhibitors of AmpC Beta-Lactamase (assay with detergent); also: nearly all actives have a fitted effect of over 25% in size;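 as to activity change, negative = inhibition: 0% = no-compound wells and -100% = no-enzyme wells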
# Details: AmpC hydrolysis of nitrocefin, absorbance 480 nm, 0.01% Triton; activity change, negative = inhibition: at 114 µM (top of the series)
# Method in brief: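 AmpC (5.3 nM in the dispensed reagent) in 20 mM phosphate pH 7.0 with 0.01% (detergent screen) or 0.0001% Triton X-100 was preincubated with compounds for 15 min at room temperature. Nitrocefin was then added from an 800 uM solution, and hydrolysis was followed at 480 nm.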
# Potency is read from the fitted curve at half-maximal effect; tags tell the direction and shape of the fitted curve.
SMILES,Potency,"activity change, negative = inhibition"
COc1ccc(NC(=O)CS(=O)c2ccc(F)cc2)cc1 (centres undefined),"inconclusive [inhibitor, partial curve]",–
C=CCn1c(SC(CCO)C(=O)NCc2ccco2)nc2sc3c(c2c1=O)CCC3 (centres undefined),"inconclusive [inhibitor, single point]",–
CCc1cc2c(=O)c(-c3ccc4c(c3)OCCO4)coc2cc1OC(=O)c1ccco1,"inconclusive [inhibitor, partial curve]",–
NNC(=O)c1cc2cc3ccccc3nc2s1,–,inactive: 1.14%
Cc1cnc(NC(=O)CSc2nnc3ncccn23)s1,–,inactive: 7.33%
Cc1ccc(NS(=O)(=O)c2ccc3c(c2)n(C)c(=O)n3C)cc1C,"inconclusive [inhibitor, full curve, poor fit]",–
COc1ccc(-c2nc(C#N)c(NC(C)C)o2)cc1,–,inactive: -11%
S=C(Nc1ccc(Oc2ccccc2)cc1)NC1CCCC1,"inconclusive [inhibitor, single point]",–
O=C(O)c1ccc(S(=O)(=O)Cc2ccccc2)cc1,"inconclusive [inhibitor, full curve, poor fit]",–
CN(C)c1ccc(CNC(=O)c2cccc(NC(=O)N3CCSc4ncccc43)c2)cc1,–,inactive: 14.4%
CCOc1ccccc1-n1c(SCC(N)=O)nnc1-c1ccco1,"inconclusive [inhibitor, full curve, poor fit]",–
Cc1cc2cc(CCNC(=O)c3c(-c4ccccc4Cl)noc3C)c(=O)[nH]c2cc1C,"inconclusive [inhibitor, full curve, poor fit]",–
CC(C)(C)c1ccccc1NC(=S)NC1CCCCC1,"inconclusive [inhibitor, partial curve, poor fit]",–
CCN(c1ccccc1)S(=O)(=O)c1ccc(Oc2ccc(C(C)=O)cc2OC)nc1,"inconclusive [inhibitor, full curve, poor fit]",–
Cc1cc(NC(=O)C2CC(c3ccc(F)cc3)=NO2)no1 (centres undefined),"inconclusive [inhibitor, full curve, poor fit]",–
CCc1nc2sc3ccccc3c(=O)c2c(=O)n1CCOC,–,inactive: -0.903%
NNC(=O)CCn1c2ccccc2c2ccccc21,–,inactive: 5.17%
COc1cccc(NC(=O)c2cc(-c3ccccn3)nc3ccccc23)c1,"inconclusive [inhibitor, full curve, poor fit]",–
O=C(COc1ccccc1-c1ccccc1)NCCN1C(=O)S/C(=C\c2cccnc2)C1=O,"inconclusive [inhibitor, partial curve, poor fit]",–
CC(C)CC(=O)Nc1nnc(SCC(=O)Nc2nccs2)s1,"inconclusive [inhibitor, single point]",–
CCc1c(C(=O)Nc2ccccc2)c(C)[nH]c(=S)c1C#N,"inconclusive [inhibitor, partial curve, poor fit]",–
Cn1cccc1-c1nc2ccc(NC(=O)c3cccs3)cc2[nH]1,"inconclusive [inhibitor, full curve]",–
CCCC(=O)C1=C(c2ccccc2)C(C#N)(C#N)C(C#N)=C1N,"inconclusive [inhibitor, single point]",–
CN(C)CCNC(=O)COc1ccc(C23CC4CC(CC(C4)C2)C3)cc1,"inconclusive [inhibitor, single point]",–
COc1cc2c(cc1NC(=O)CN(C)Cc1ccc(OC)c(OC)c1)oc1ccccc12,–,inactive: 5.25%

SMILES,Potency,"activity change, negative = inhibition"
COc1cccc(CNC(=O)c2ccc(S(=O)(=O)N3CCOCC3)cc2)c1,"inconclusive [inhibitor, partial curve]",–
CC1CC(C)(C)OC(C[N+]2(C)CCCCC2)O1 (centres undefined),"inconclusive [inhibitor, partial curve, poor fit]",–
CC1(C)CC(=O)C(C=NCCN2CCN(C(=O)CCl)CC2)=C(O)C1,–,inactive: 0.414%
CCOc1ccc(Nc2oc(-c3ccco3)nc2C#N)cc1,–,inactive: -12.3%
Cc1ccc(CNC(=O)C(=O)NCC2OCCN2C(=O)c2ccc(Cl)cc2)cc1 (centres undefined),"inconclusive [inhibitor, partial curve, poor fit]",–
Cc1cc(N2CCOCC2)c2c(N)c(Br)cc(C)c2n1,"inconclusive [inhibitor, full curve, poor fit]",–
O=C1C2CCCN2C(c2ccc(F)cc2)N1c1ccc(Cl)cc1 (centres undefined),–,inactive: -2.91%
CN(C)C(=O)NC(Nc1cccc([N+](=O)[O-])c1)C(Cl)(Cl)Cl (centres undefined),–,inactive: 6.05%
Cc1cccc(NC(=S)Nc2ccccn2)c1C,–,inactive: -1.07%
CCn1c(SCC(=O)Nc2ccc(N3CCOCC3)c(Cl)c2)nnc1-c1ccc(N)cc1,"inconclusive [inhibitor, full curve, poor fit]",–
Brc1ccc(Sc2cnc3ccccc3n2)cc1,–,inactive: 0.293%
COC(=O)c1ccc(C2/C(=C(/O)c3ccc(Cl)cc3)C(=O)C(=O)N2C2CCS(=O)(=O)C2)cc1 (centres undefined),–,inactive: 4.49%
Cc1nn2c3ccccc3n(C)c2nc1=O,"inconclusive [inhibitor, full curve, poor fit]",–
N#C/C(=C\c1cc2ccccc2nc1N1CCCCC1)C(N)=O,"inconclusive [inhibitor, partial curve, poor fit]",–
CCC(=Nc1ccc(OC)cc1OC)c1c(O)n(C)c(=O)n(C)c1=O,"inconclusive [inhibitor, partial curve, poor fit]",–
CCC(C)[C@H](NC(=O)C1(c2ccccc2)CCN(C(=O)OC(C)(C)C)CC1)C(=O)N[C@@H](C(=O)O)c1ccccc1 (some centres undefined),"inconclusive [inhibitor, partial curve, poor fit]",–
CCOC(=O)C1CCCN(C(=O)c2cncc(Br)c2)C1 (centres undefined),"inconclusive [inhibitor, full curve]",–
COCCn1c(=O)[nH]c2cc(C(=O)N3CCN(c4cccc(C(F)(F)F)c4)CC3)ccc2c1=O,–,inactive: -4.16%
CN(C)c1nc(OCCOC(=O)COc2ccc(Cl)cc2Cl)nc(N(C)C)n1,"inconclusive [inhibitor, full curve, poor fit]",–
CCc1ccc(N2C(=O)NC(=O)/C(=C\c3cccn3CCOc3ccc(C(C)C)cc3)C2=O)cc1,–,inactive: -13.6%
COc1ccc(NC(=O)c2ccccn2)cc1OC,–,inactive: -10.1%
Cc1cc(C(C)(C)C)ccc1OCCN(C)C,"inconclusive [inhibitor, partial curve]",–
CC(C)(C)c1ccc(C(=O)NC(=S)NNC(=O)c2cccs2)cc1,"inconclusive [inhibitor, full curve, poor fit]",–
Cc1cc(C)n(-c2cc(Cl)ccc2[N+](=O)[O-])n1,–,inactive: 7.75%
O=C(Nc1ccc(Cl)cc1)C1=Cc2ccccc2OC1,–,inactive: -12.8%

SMILES,Potency,"activity change, negative = inhibition"
Cc1ccc(C)c(NC(=O)CSc2nnc(CCNC(=O)OC(C)(C)C)o2)c1,"inconclusive [inhibitor, full curve]",–
O=C(Nc1nc(-c2cccs2)cs1)c1ccc(Cl)cc1,–,inactive: 6.12%
c1ccc(Nc2nc(NCCN3CCOCC3)nc(Nc3ccccc3)n2)cc1,"inconclusive [inhibitor, full curve, poor fit]",–
S=C(NNc1ccnc2cc(Cl)ccc12)Nc1ccc(Cl)cc1Cl,–,inactive: -12.9%
O=C(Nc1ccc(S(=O)(=O)N2CCCCC2)cc1)C1CCCO1 (centres undefined),"inconclusive [inhibitor, partial curve]",–
CNC(=O)c1cc2cc(Br)ccc2s1,"inconclusive [inhibitor, full curve, poor fit]",–
COc1ccc(NC(=O)c2cc(F)c(F)cc2Cl)cc1Cl,–,inactive: -1.31%
CC(=O)c1c(C)[nH]c(C(=O)Nc2ccc(Cl)cc2F)c1C,"inconclusive [inhibitor, full curve, poor fit]",–
O=C1CC(c2ccco2)=Nc2ccccc2N1,–,inactive: -3.99%
Cc1ccc(Cl)cc1NC(=O)Nc1nnc(N2CCCC(C)C2)s1 (centres undefined),–,inactive: 13.6%
C/C=C/c1ccc(OCCOCCNCc2ccccc2)c(OC)c1,–,inactive: -6.86%
COc1cc(Cl)c(C)cc1NC(=O)[C@@H]1CCCN1C(=O)c1cccs1,"inconclusive [inhibitor, full curve, poor fit]",–
O=C(NCC1OCCCN1S(=O)(=O)c1cc(F)ccc1F)C(=O)NC1CCCCC1 (centres undefined),"inconclusive [inhibitor, full curve, poor fit]",–
Cc1cccc(NC2=NCC(=O)N2Cc2cccs2)c1,"inconclusive [inhibitor, single point]",–
O=C(Nc1ccc(S(=O)(=O)N2CCOCC2)cc1)c1ccc(F)cc1,"inconclusive [inhibitor, full curve, poor fit]",–
O=c1[nH]c2ccc(NCc3ccc(OCc4ccccc4Cl)cc3)cc2[nH]1,–,inactive: -2.46%
CCCCOc1ccc(/C=N/Nc2cc(N3CCOCC3)nc(C)n2)cc1,"inconclusive [inhibitor, full curve]",–
C#CCC(NC(=O)c1ccc(C#N)cc1)C(=O)NCCC (centres undefined),–,inactive: 0.911%
O=C(/C=C/c1ccc(Br)o1)NCCCN1CCOCC1,–,inactive: 2.22%
Cc1ccc(S(=O)(=O)c2nnn3c2nc(NC(C)c2ccccc2)c2sccc23)cc1 (centres undefined),–,inactive: 16.6%
CCC1CCCCN1C(=O)CSc1nnc(-c2cccc(Cl)c2)o1 (centres undefined),"inconclusive [inhibitor, full curve, poor fit]",–
COc1cc(C(=O)OCCCN(C)C)cc(OC)c1OC,–,inactive: -8.72%
COc1ccc(/C=N/NC(=O)c2cccc([N+](=O)[O-])c2)cc1O,–,inactive: 0.858%
CCN1C(=O)[C@H]2[C@@H](c3ccc(-c4ccccc4)c(OC)c3)N[C@@](Cc3ccccc3)(C(=O)OC)[C@H]2C1=O,"inconclusive [inhibitor, single point]",–
